Experimental data as given in the RNAGym collection of RNA variant scans (doi:10.1093/nar/gkz1192).
The source gives no read counts; variants with many changes may rest on few reads.

B1: CPEB3 Ribozyme (parent)
chain: UAACAGGGGGCCACAGCAGAAGCGUUCACGUCGCAGCCCCUGUCAGAUUCUGGUGAAUCUGCGAAUUCUGCUGUAUAUCUC

Variants of: B1
Test: self-cleavage, relative activity (ratio to wild type); higher = more cleavage; in vitro, sequencing
Method in brief: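 For each CPEB3 ribozyme variant, relative activity is its cleaved/total read fraction divided by the unmutated ribozyme's. Barcoded error-prone PCR libraries were transcribed by T7 RNA polymerase (5 hours, 37°C) and held in DNase I for 15 min before an EDTA stop, with cleavage occurring throughout. Template-switching reverse transcription and Illumina sequencing were used to read the RNAs. A 5-read minimum applied, and results are the mean of three batches.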

Variant	self-cleavage
UAACAGGGGGCCACAGCAGGAGCGUUCACGUCGCAGCCCCUGUCAGAUUCCGGUGGAUCUGCGAAUUCUGCUGUAUAUCUC [A20G U51C A56G]	0.66
UAACAGGGGGCCACAGCAGGAGCGUUCACGUCGCAGCCCCUGACAGAUUCUGGUGAAUCUGCGGAUUCUGCUGCAUAACUC [A20G U43A A64G U74C U78A]	1.22
UAACAGGGGGCCACAGCAGGAGCGUUCACGUCGCAGCCCCUGUCAGAUCCUGGAGUAUCUGCGUAUUCUGCCGUAUAUCUC [A20G U49C U54A A56U A64U U72C]	0.11
UAACAGGGGGCCACAGCAGGAGCGUUCACGUCGCAGCCCCUGUCAGACUCUGGUGAGUCUGCGAAUUCCGCUGUAUAUCAC [A20G U48C A57G U69C U80A]	0.53
UAACAGGGGGCCACAGCAGGAGCGUUCACGUCGCAGCCCCUGUCAGAUUCUGGCGAAUCUGCGAAUUCUGCCGUAAAUCUC [A20G U54C U72C U76A]	0.85
UAACAGGGGGCCACAGCAGGAGCGUUCACGUCGCAGCCCCUGUCAGACUCUGGUGAAUCUGCGAAUUCUGCUGCAUAUCUC [A20G U48C U74C]	0.81
UAACAGGGGGCCACAGCAGGAGCGUUCACGUCGCAGCCCCUGACAGAUUCUGGUGAAUCGGCGAAUUCUGCUGUAUAUCUC [A20G U43A U60G]	0.41
UAACAGGGGGCCACAGCAGGAGCGUUCACGUCGCAGCCCCUGACAGAUUCUGGUGAAUCCGCGAAUUCUGCUGUAUAUCUC [A20G U43A U60C]	0.24
UAACAGGGGGCCACAGCAGGAGCGUUCACGUCGCAGCCCCUGUCAGAAUCUGGCGAAUCUGCGAUUUCUGCUGUAUAUCUC [A20G U48A U54C A65U]	0.18
UAACAGGGGGCCACAGCAGGAGCGUUCACGUCGCAGCCCCUGCCAGAUUCUGGUGAAUCUGCGCAUUCUGCUGUAUAUCUC [A20G U43C A64C]	0.18
UAACAGGGGGCCACAGCAGGAGCGUUCACGUCGCAGCCCCUGUCAGAUUCCGGUGAAUCUGCGAAUUCAGCUGUAUAUCUC [A20G U51C U69A]	0.36
UAACAGGGGGCCACAGCAGGAGCGUUCACGUCGCAGCCCCUGGCAGAUUCUGGUGAAUCUGCGAAUUCUGCCGUAUAUCUC [A20G U43G U72C]	0.08
UAACAGGGGGCCACAGCAGGAGCGUUCACGUCGCAGCCCCUGUCAGAUUCAGGUGGAUCUGCGCAUUCUGCUGUAUAUCUC [A20G U51A A56G A64C]	0.12
UAACAGGGGGCCACAGCAGGAGCGUUCACGUCGCAGCCCCUGCCAGAUUUUGGUGAAUCUGCGUAUUCUGCCGUAUUUCUC [A20G U43C C50U A64U U72C A77U]	0.08
UAACAGGGGGCCACAGCAGGAGCGUUCACGUCGCAGCCCCCGUCAGAUUAUGGUGAAUCUGCGAAUUUUGCUGUAUAUCUC [A20G U41C C50A C68U]	0.52
UAACAGGGGGCCACAGCAGGAGCGUUCACGUCGCAGCCCCAGUCAGAUUCUGGCGAAUCUGCGAAUUCUGCUGUAUAUCUC [A20G U41A U54C]	0.35
UAACAGGGGGCCACAGCAGGAGCGUUCACGUCGCAGCCCCUGUCAGAUUCUGGAGAAUCUGCGAAUUCUGCUGUAUAUCAC [A20G U54A U80A]	1.15

Variant	self-cleavage
UAACAGGGGGCCACAGCAGGAGCGUUCACGUCGCAGCCCCCGUCAGAUCCUGGUGAAUCUGCAAGUUCUGCCGUAUAUCCC [A20G U41C U49C G63A A65G U72C U80C]	0.12
UAACAGGGGGCCACAGCAGGAGCGUUCACGUCGCAGCCCCUGUCAGAUCCAGGUGGAUCUGCGAAUUCUGCUGUAUAUCUC [A20G U49C U51A A56G]	0.32
UAACAGGGGGCCACAGCAGGAGCGUUCACGUCGCAGCCCCUGUCAGAUUCUGGCGAAUCAGCGAAUUCUGCUGUAUAUCUC [A20G U54C U60A]	0.51
UAACAGGGGGCCACAGCAGGAGCGUUCACGUCGCAGCCCCUGUCAGACUCUGGGGAAUCUGCGAGUUCUGCUGUAUAUCUC [A20G U48C U54G A65G]	0.09
UAACAGGGGGCCACAGCAGGAGCGUUCACGUCGCAGCCCCUGUCAGACUCUGGUGAAUCUGCGAAUUCUGCUGUAUGUCUC [A20G U48C A77G]	0.26
UAACAGGGGGCCACAGCAGGAGCGUUCACGUCGCAGCCCCUGCCAGAUUCUGGUGAAUCUGCGAAUUCUGCUGUAUACCUC [A20G U43C U78C]	0.39
UAACAGGGGGCCACAGCAGGAGCGUUCACGUCGCAGCCCCUGCCAGAUUCAGGUGAAUCUGCCGAUUCUGCUGUAUAUCUC [A20G U43C U51A G63C A64G]	0.19
UAACAGGGGGCCACAGCAGGAGCGUUCACGUCGCAGCCCCUGUCAGAUUCUGGCGAAUCUGUGAAUUCUGCUGUAUAUCUC [A20G U54C C62U]	0.44
UAACAGGGGGCCACAGCAGGAGCGUUCACGUCGCAGCCCCCGUCAGAUUCUGGUGAACCUGCGAAUUCUGCUGUAAAUCUC [A20G U41C U58C U76A]	0.76
UAACAGGGGGCCACAGCAGGAGCGUUCACGUCGCAGCCCCCGUUGGACUCUGGUGAAUCUGCGAAUUCUGCUGUAUAUCUC [A20G U41C C44U A45G U48C]	0.17
UAACAGGGGGCCACAGCAGGAGCGUUCACGUCGCAGCCCCUGUCAGAAUCUGGUGUAUCUGCGGAUUCUGCUGUAUAUCUC [A20G U48A A56U A64G]	0.1
UAACAGGGGGCCACAGCAGGAGCGUUCACGUCGCAGCCCCUGCCAGAUUCUGGUGAAUCCGCGAAUUCUGCUGUGUAUCUC [A20G U43C U60C A75G]	0.09
UAACAGGGGGCCACAGCAGGAGCGUUCACGUCGCAGCCCCUGUCAGACUCUGGUGAAUCUGCGGAUUCUGCUGUAUAUCUC [A20G U48C A64G]	0.24
UAACAGGGGGCCACAGCAGGAGCGUUCACGUCGCAGCCCCUGUCAGAUUCUGGCGAAUCUGCGAAUUCUGCUUUAUAUCCC [A20G U54C G73U U80C]	1.16
UAACAGGGGGCCACAGCAGGAGCGUUCACGUCGCAGCCCCUGUCAGAUCCUGGAGAAUCUGCGAAUUCUGCUGAAUAUCUC [A20G U49C U54A U74A]	0.66
UAACAGGGGGCCACAGCAGGAGCGUUCACGUCGCAGCCCCUGCCAGAUCCUGGUGAAUCUGCGAAUUCUGCUGUAUAUCCC [A20G U43C U49C U80C]	0.08
UAACAGGGGGCCACAGCAGGAGCGUUCACGUCGCAGCCCCUGUCAGAUUCCGGGGAAUCUGCGAAUUCUGCAGUAUAUCUC [A20G U51C U54G U72A]	0.43
